In all, about 110,000 compounds were measured (“z-score”: median about -0.1, highest 2% from about 2 on). The list shows a part of the results. Calls of active or inactive are those of the source.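 The calls were made as follows: active = z-score in the third read window above 3 or below -3; inactive = the rest.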
target: Metabotropic glutamate receptor 8 (Rattus norvegicus) (UniProt P70579); experiment: mGluR8 Gi/Go-coupled signaling modulation – cell-based, rat, thallium flux, HTS, primary screen (AID 488969); settings: HEK293 rat mGluR8, GIRK (G protein-gated inwardly rectifying potassium channel) thallium flux, FluoZin2; at 10 µM; stronger effect = higher value; submaximal glutamate (EC20) added with thallium
Sequence of UniProt P70579 (P70579 whole entry, looked up): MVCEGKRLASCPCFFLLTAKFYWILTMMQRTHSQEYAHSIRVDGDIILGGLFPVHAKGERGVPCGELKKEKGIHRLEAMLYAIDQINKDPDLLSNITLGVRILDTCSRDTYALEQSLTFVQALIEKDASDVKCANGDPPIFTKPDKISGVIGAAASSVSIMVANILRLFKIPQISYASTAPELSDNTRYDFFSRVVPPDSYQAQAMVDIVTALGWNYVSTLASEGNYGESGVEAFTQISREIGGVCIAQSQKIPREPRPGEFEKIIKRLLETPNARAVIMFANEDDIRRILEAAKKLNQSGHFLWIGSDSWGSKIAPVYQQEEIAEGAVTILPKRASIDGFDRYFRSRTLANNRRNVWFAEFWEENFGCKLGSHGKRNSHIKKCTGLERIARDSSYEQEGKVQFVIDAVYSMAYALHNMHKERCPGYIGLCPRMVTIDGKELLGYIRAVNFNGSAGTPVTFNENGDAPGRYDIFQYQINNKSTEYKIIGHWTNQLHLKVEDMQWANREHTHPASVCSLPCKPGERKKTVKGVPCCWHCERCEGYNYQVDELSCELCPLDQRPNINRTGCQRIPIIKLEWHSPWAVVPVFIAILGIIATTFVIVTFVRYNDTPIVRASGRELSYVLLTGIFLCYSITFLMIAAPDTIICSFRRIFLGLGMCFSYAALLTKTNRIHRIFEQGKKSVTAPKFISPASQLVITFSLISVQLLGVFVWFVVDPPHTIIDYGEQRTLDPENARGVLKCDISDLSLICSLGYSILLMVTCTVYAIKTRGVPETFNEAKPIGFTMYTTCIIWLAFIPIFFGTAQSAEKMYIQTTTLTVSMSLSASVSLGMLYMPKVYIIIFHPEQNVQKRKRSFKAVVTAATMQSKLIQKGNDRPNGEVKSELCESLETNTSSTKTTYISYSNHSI

SMILES	z-score
COc1ccc(C(C(=O)NC(C)(C)C)N(Cc2cccs2)C(=O)CCC(=O)Nc2cc(C)on2)cc1 (stereo not given)	-0.379
Fc1ccccc1Nc1nc2c(s1)CCc1ccccc1-2	-0.0906
O=C(CCC(=O)c1cccs1)OCc1nnc(-c2ccccc2)o1	1.19
Cc1cc(NC(=O)C2CC(c3ccc(Cl)cc3)=NO2)no1 (stereo not given)	-0.101
CC(CN1CCCCC1)OC(=O)c1ccccc1Cl (stereo not given)	0.106
Cn1cc([N+](=O)[O-])c(C(=O)Nc2ccc(-c3nc4ccccc4[nH]3)cc2)n1	-0.22
CC(C)CCn1c(O)c(N=Nc2ccccn2)c2ccccc21	1.19
Cn1c(CN2CCOCC2)nnc1SCC(=O)NCCc1ccccc1	-0.197
COc1ccccc1NC(c1cccnc1)c1ccc2cccnc2c1O (stereo not given)	-0.576
O=C(N/N=C/c1ccco1)c1ccncc1	0.0764
CN(C)C(=O)C12CCC(C)(c3nc4ccccc4nc31)C2(C)C (stereo not given)	0.0165
CCOCCCNS(=O)(=O)c1ccc(NC(=O)N2c3ccccc3Sc3ccccc32)cc1	-0.106
O=C(Cc1ccc(Cl)cc1)NC(=S)Nc1ccccc1N1CCOCC1	0.883
CCOCCc1nnc(N)s1	0.185
Cc1nc2c3ccccc3n(Cc3ccccc3F)c2s1	-0.158
O=C(Nc1cc2c(cc1Cl)OCCCO2)c1ccccc1	-0.185
O=C(c1ccc(Br)cc1)C1CCc2occc2C1=O (stereo not given)	0.304
COc1cccc(NC(=O)CSCC(=O)O)c1	0.785
c1ccc(-c2nnc(Cn3c4ccccc4c4nc5ccccc5nc43)o2)cc1	0.244
O=C1/C(=C/c2cccs2)COc2ccccc21	-0.229
CCOC(=O)C(C(=O)OCC)c1cc(Br)c2noc3c2c1C(=O)c1ccccc1-3	active: -4.38
CNC(=O)CSCc1c(Cl)cccc1Cl	0.903

SMILES	z-score
O=C(CCCSc1ccccc1)Nc1nc(-c2ccccn2)cs1	-0.234
CC(C)NS(=O)(=O)c1ccc(OCC(=O)NCC2CCCO2)c(Cl)c1 (stereo not given)	-0.367
Cc1ccc(OCC(=O)NNC(=O)C2CCN(c3nccc(C)n3)CC2)cc1	-0.239
Cc1[nH]nc2c1/C(=N/O)CC(c1ccccc1)C2 (stereo not given)	0.0216
COc1ccc(-c2nnc(SCC(=O)Nc3ccc4c(c3)OCCO4)n2N)cc1OC	-0.393
CNC(=O)c1ccc(Nc2nnc(-c3ccc(C)c(S(=O)(=O)NCC4CCCO4)c3)c3ccccc23)cc1 (stereo not given)	-0.359
COc1cc2c(C(=O)N3CCN(C4CCCCC4)CC3)cn(CC(C)C)c(=O)c2cc1OC	2.68
CCCn1c(-c2ccc(F)cc2)cnc1SCC(=O)O	-0.678
CCOC(=O)N1CCN(C(=O)CN(c2ccc3c(c2)OCO3)S(C)(=O)=O)CC1	0.564
Cc1ccc(C)c(NS(=O)(=O)c2ccc(OCC(=O)N3CCOCC3)cc2)c1	-0.409
OCCN(CCO)CC(O)COc1ccc(C23CC4CC(CC(C4)C2)C3)cc1 (stereo not given)	0.258
CCCCCCCNC1=CC(=O)CC(c2ccco2)C1 (stereo not given)	-0.08
Cc1ccc(C(=O)O/N=C/c2c(C(F)(F)F)nn(C)c2Sc2ccc(Cl)cc2)cc1	-0.698
COC(=O)Nc1ccc(NC(C)=O)cc1	1.52
CCOc1ccccc1CSc1nc2ccccc2[nH]1	0.599
CCOC(=O)C(=O)N=Nc1c(O)[nH]c2ccccc12	-0.0577
CC1(C)CC(=O)C2=C(C1)N(c1ccc(Cl)cc1)C(=O)C2(O)C(F)(F)F (stereo not given)	-0.341
CCOc1ccc(NS(=O)(=O)c2ccc(NS(=O)(=O)c3ccccc3)cc2)cc1	-0.538
CC1Cc2ccccc2N1C(=O)CN(C)S(=O)(=O)c1cccc2cccnc12 (stereo not given)	0.261
CCCCNC(=O)CSc1nc2cc(OC)c(OC)cc2c(=O)n1Cc1ccc(OC)cc1	-0.298
COc1ccc(CN2C3CCCC2CC(NC(=O)Nc2ccccc2C)C3)cc1 (stereo not given)	-0.0636
COc1ccc(OC)c(-n2c(-c3ccc(C)cc3)n[nH]c2=S)c1	0.501

SMILES	z-score
O=C(NC1CC2CCCC(C1)N2CC(=O)N1CCCc2ccccc21)C1CCCCC1 (stereo not given)	-0.505
CCOC(=O)Nc1ccc(C(N)=O)cc1	-0.0604
COC(=O)CNC(=O)CSc1nnc(C)c(=O)[nH]1	-0.199
Cc1noc(C)c1S(=O)(=O)N(CC(=O)Nc1ccc2c(c1)OCCO2)c1ccc(C(C)C)cc1	-0.068
C(=N\Nc1nc(N2CCOCC2)nc(N2CCOCC2)n1)/c1cccnc1	0.593
CCOC(=O)c1cccc(NC(=O)CSc2nnnn2CC)c1	1.72
CCCN(Cc1ccccc1)C(=S)Nc1ccc(OC(F)F)cc1	1.61
CC(C)N(C(=O)c1ccc2nc3c4ccccc4c4ccccc4c3nc2c1)C(C)C	0.179
CCCOc1ccc(NC2=CC(=O)CC(C)(C)C2)cc1	0.0931
Cc1cc(Br)ccc1SCC(=O)OCC(=O)Nc1ncc(C(F)(F)F)cc1Cl	-0.668
CCOC(=O)Cn1c(=O)oc2cc(S(=O)(=O)N3CCC(N4CCCCC4)CC3)ccc21	0.198
O=C(NCCc1cn2ccccc2n1)C1CCCCC1	0.268
CC(C)(C)NS(=O)(=O)c1ccc2nc(NC(=O)Cc3cccs3)sc2c1	-0.427
CCn1c(O)c(N=NC(=O)c2ccc(CSc3nncn3C)cc2)c2ccccc21	-0.256
O=C(CSc1nc(-c2ccccc2)c(-c2ccccc2)[nH]1)Nc1nccs1	-0.297
CCn1c(SCC(=O)NC)nnc1C(C)C	-0.182
COc1ccc(C(C(=O)NC2CCCC2)N(C(=O)c2ccoc2C)c2ccc(C)c(C)c2)cc1 (stereo not given)	-0.292
Cc1ccc(SCCC(=O)Nc2ccc(Br)c(C)c2)cc1	-0.0218
CCOc1ccc2nc(NC(=O)c3ccoc3C)sc2c1	-0.855
C1=Nc2c(Nc3ccccc3)ncnc2Oc2ccccc21	-1.41
CN(CCC#N)C(=O)COC(=O)c1c2c(nc3ccccc13)/C(=C/c1ccco1)CC2	-0.177
COc1ccc(NC2=CC(=O)CC(c3ccc(C)cc3)C2)c(OC)c1 (stereo not given)	-0.296

SMILES	z-score
Cc1sc2nc(CSc3nnnn3-c3ccc(Cl)cc3)[nH]c(=O)c2c1C	-0.255
CC1C/C(=N/NC(=O)c2cccs2)CC(C)(C)C1 (stereo not given)	0.0467
N#Cc1ccc(-c2ccccc2)nc1SCC(=O)c1cc2ccccc2oc1=O	-0.35
O=C(NCc1ccc2c(c1)OCO2)c1ccc(NS(=O)(=O)c2ccc3c(c2)OCCO3)cc1	-0.267
COc1cc(C)ccc1OCCOCCOc1cc(C)c(C)cc1Br	-0.0614
Cc1cc(C(=O)N/N=C/c2c[nH]c3ccccc23)c(C)o1	1.24
CCOC(=O)C1CCCCN1Cc1ccc(OC)c(OC)c1OC (stereo not given)	-0.361
O=C(Nc1ccccc1N(C(=O)c1ccco1)S(=O)(=O)c1cccs1)c1ccco1	-0.191
COc1ccc(/C(O)=C2\C(=O)C(=O)N(c3cc(C)on3)C2c2ccccc2OC)cc1 (stereo not given)	-1.82
Cc1cc(C(C)(C)C)ccc1OCCn1ccnc1	-0.144
Cc1nn(-c2ccccc2Cl)c2sc(C(=O)Nc3nnc(C4CC4)s3)cc12	-0.611
COc1ccc(CC(=O)N2CCN(c3ccc(C4=NNC(=O)CC4C)cc3)CC2)cc1 (stereo not given)	-0.0788
COC(=O)c1cccc(Nc2nc3ccccc3nc2C)c1	-0.459
CC1CCOC(c2coc3ccccc3c2=O)O1 (stereo not given)	-0.579
O=C(COc1ccc2c(C(F)(F)F)cc(=O)oc2c1)Nc1ccc2c(c1)OCCO2	-0.0135
CCc1ccc(C2NC(=S)NC3=C2C(=O)N(c2ccccc2OC)C(c2ccc(CC)cc2)N3)cc1 (stereo not given)	0.295
C=CCn1c(SCC(=O)NC2CCS(=O)(=O)C2)nnc1-c1cc2c(s1)CCC(CC)C2 (stereo not given)	-1.13
CC(C)C1Cc2c(sc3c2c(=O)n(-c2ccccc2)c2nncn32)CO1 (stereo not given)	-0.448
COc1ccc(/C=c2/sc3nc(-c4ccccc4)c(-c4ccccc4)n3c2=O)cc1	0.0337
COc1ccc2c(=O)c(N3C(=O)c4ccccc4C3=O)coc2c1	0.874
CC(C)C(=O)Nc1nnn(C)n1	active: 9.51
c1csc(Cc2nc(-c3ccc(-n4cccc4)cc3)no2)c1	0.247

SMILES	z-score
O=C1CC(N2CCN(Cc3ccc4c(c3)OCO4)CC2)C(=O)N1Cc1ccc(N2CCCC2=O)cc1 (stereo not given)	0.112
O=C(CCS(=O)(=O)c1ccc(Br)s1)NCc1ccc2c(c1)OCO2	-0.113
O=C(NCc1ccc2c(c1)OCO2)C1CCC(CNS(=O)(=O)c2cccc3nsnc23)CC1 (stereo not given)	0.434
COc1ccc(OC)c(S(=O)(=O)Nc2ccc(C(N)=O)cc2)c1	-0.0929
COc1c(Cl)cc(C(=O)Nc2ccccc2C(=O)O)cc1Cl	-1.61
O=C1C2CC=CCC2C(=O)N1c1n[nH]c(Cc2ccccc2)n1 (stereo not given)	-0.185
O=C(NCCN1CCOCC1)c1ccc(CS(=O)(=O)c2ccc(Cl)cc2)o1	0.125
CC(C)(C)c1nc(SCC(=O)Nc2ccc3c(c2)OCCO3)c2ccccc2n1	-0.00419
O=C(O)CCC(NC(=O)C(Cc1ccc2c(c1)OCO2)NC(=O)c1ccccc1)C(=O)O (stereo not given)	-0.0783
Cc1cc(C)c(S(=O)(=O)c2ccccc2C(=O)O)c(C)c1	1.21
COC(=O)C(Cc1ccc(OC(=O)c2ccccc2Cl)cc1)N1Cc2ccccc2C1=O (stereo not given)	-2.16
CC(=O)c1cc(-c2ccccc2)n(CC(=O)N2CCN(C3CCCC3)CC2)c1C	-0.473
CC(C)CC(NC(=O)OC(C)(C)C)C(=O)NCc1ccccc1 (stereo not given)	0.346
Cc1ccc(S(=O)(=O)NCC(C)NS(=O)(=O)c2ccc(C)cc2)cc1 (stereo not given)	2.8
Cc1cccc(C(=O)O/N=C2\CCCc3ccccc32)c1	-0.0944
Clc1ccc(Cc2ccccc2)nn1	0.0291
CCC(CC)C(=O)Nc1ccccc1-n1cccc1	0.227
Cc1ccc(C)c(CS(=O)(=O)c2cn(CC(=O)N3CCC(C)CC3)c3ccccc23)c1	-0.551
CCOC(=O)Cc1cc(=O)n2[nH]c(-c3ccc(Cl)cc3)cc2n1	-0.486
COc1ccccc1C(=O)N1CC2(C)CC1CC(C)(C)C2 (stereo not given)	-0.263
COc1ccc(NS(=O)(=O)c2cccc(C(=O)N/N=C(\C)c3ccncc3)c2)cc1	-0.124
Cc1onc(-c2ccccc2)c1C(=O)N1CCOCC1	-0.272

— PubChem BioAssay AID488969 (Vanderbilt High Throughput Screening Facility, 2010)
